Data taken from the supplement of paper PMC9151546.
Many values rest on one well or one pass, so single values are uncertain.

Legend:
CHO-K1 [1] = test: micronucleus frequency (% of nucleated events); higher = more micronuclei (genotoxic)
CHO-K1 [2] = test: hypodiploid nuclei frequency (% of nucleated events); higher = more hypodiploid events (aneugenic)
Description: (§1)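 Flow-cytometric in vitro micronucleus assay (Litron MicroFlow) in CHO-K1 cells in 96-well plates, 19 concentrations (4.5-200 µM, n=1 per concentration). Without S9, cells were exposed for 24 h and sampled at 48 h. With Aroclor 1254-induced rat liver S9, cells were exposed for 3-4 h and sampled at 27-28 h. Read-outs are %MN and %hypodiploid nuclei relative to nucleated events, and relative survival as the nuclei-to-bead ratio versus the 1% DMSO vehicle control (x100).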

CHO-K1 [3] = test: relative survival (nuclei to bead ratio vs DMSO control) (% of vehicle control); higher = more surviving cells
Description: as §1
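For hypodiploid nuclei frequency (% of nucleated events) in this document: hypodiploid nuclei gated on a flow cytometer with 488 nm excitation after SYTOX Green staining, cultures at 37 °C, positive controls vinblastine without S9 and cyclophosphamide with S9.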
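For micronucleus frequency (% of nucleated events) in this document: cells lysed with nuclei stained by SYTOX Green, then micronucleus-gated events counted against nucleated events by flow cytometry with 488 nm excitation.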
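For relative survival (nuclei to bead ratio vs DMSO control) in this document: Lysed-cell nuclei stained with SYTOX Green and counted against counting beads by flow cytometry at 488 nm excitation, with vinblastine (no S9) and cyclophosphamide (plus S9) as positive controls.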

CCc1nc(N)nc(N)c1-c1ccc(Cl)cc1 [Pyrimethamine]
Settings | hypodiploid nuclei frequency, CHO-K1 [2] [%] | micronucleus frequency, CHO-K1 [1] [%] | relative survival, CHO-K1 [3]
concentration: 4.5 (µM), S9 metabolic activation: with S9, exposure time: 3-4 hours | 0.26 | 0.98 | 88.7
concentration: 4.5 (µM), S9 metabolic activation: without S9, exposure time: 24 hours | 0.54 | 0.96 | 111
concentration: 5.63 (µM), S9 metabolic activation: with S9, exposure time: 3-4 hours | 0.2 | 1.98 | 88.7
concentration: 5.63 (µM), S9 metabolic activation: without S9, exposure time: 24 hours | 0.5 | 1.04 | 115
concentration: 7.04 (µM), S9 metabolic activation: with S9, exposure time: 3-4 hours | 0.34 | 1.08 | 100
concentration: 7.04 (µM), S9 metabolic activation: without S9, exposure time: 24 hours | 0.56 | 1.2 | 108
concentration: 8.8 (µM), S9 metabolic activation: with S9, exposure time: 3-4 hours | 0.18 | 0.9 | 76.7
concentration: 8.8 (µM), S9 metabolic activation: without S9, exposure time: 24 hours | 0.56 | 1.28 | 122
concentration: 11 (µM), S9 metabolic activation: with S9, exposure time: 3-4 hours | 0.12 | 1.14 | 90.3
concentration: 11 (µM), S9 metabolic activation: without S9, exposure time: 24 hours | 0.6 | 1.5 | 93.8
concentration: 13.7 (µM), S9 metabolic activation: with S9, exposure time: 3-4 hours | 0.24 | 0.88 | 110
concentration: 13.7 (µM), S9 metabolic activation: without S9, exposure time: 24 hours | 0.38 | 1.4 | 122
concentration: 17.2 (µM), S9 metabolic activation: with S9, exposure time: 3-4 hours | 0.34 | 1.16 | 100
concentration: 17.2 (µM), S9 metabolic activation: without S9, exposure time: 24 hours | 0.62 | 1.52 | 97.5
concentration: 21.5 (µM), S9 metabolic activation: with S9, exposure time: 3-4 hours | 0.16 | 1.56 | 110
concentration: 21.5 (µM), S9 metabolic activation: without S9, exposure time: 24 hours | 0.62 | 1.5 | 74.6
concentration: 26.8 (µM), S9 metabolic activation: with S9, exposure time: 3-4 hours | 0.22 | 1.36 | 94.6
concentration: 26.8 (µM), S9 metabolic activation: without S9, exposure time: 24 hours | 0.7 | 1.32 | 79.1
concentration: 33.6 (µM), S9 metabolic activation: with S9, exposure time: 3-4 hours | 0.32 | 1.6 | 95.8
concentration: 33.6 (µM), S9 metabolic activation: without S9, exposure time: 24 hours | 0.68 | 0.96 | 143
concentration: 41.9 (µM), S9 metabolic activation: with S9, exposure time: 3-4 hours | 0.24 | 1.28 | 97.7
concentration: 41.9 (µM), S9 metabolic activation: without S9, exposure time: 24 hours | 0.64 | 1.3 | 79.1
concentration: 52.4 (µM), S9 metabolic activation: with S9, exposure time: 3-4 hours | 0.34 | 1.7 | 104
concentration: 52.4 (µM), S9 metabolic activation: without S9, exposure time: 24 hours | 0.7 | 1.06 | 85
concentration: 65.5 (µM), S9 metabolic activation: with S9, exposure time: 3-4 hours | 0.2 | 1.24 | 102
concentration: 65.5 (µM), S9 metabolic activation: without S9, exposure time: 24 hours | 0.72 | 1.18 | 81.3
concentration: 81.9 (µM), S9 metabolic activation: with S9, exposure time: 3-4 hours | 0.24 | 1.02 | 99
concentration: 81.9 (µM), S9 metabolic activation: without S9, exposure time: 24 hours | 0.86 | 1.16 | 88
concentration: 102 (µM), S9 metabolic activation: with S9, exposure time: 3-4 hours | 0.3 | 1.42 | 93.4
concentration: 102 (µM), S9 metabolic activation: without S9, exposure time: 24 hours | 0.98 | 1.44 | 92.3
concentration: 128 (µM), S9 metabolic activation: with S9, exposure time: 3-4 hours | 0.26 | 1.12 | 87.9
concentration: 128 (µM), S9 metabolic activation: without S9, exposure time: 24 hours | 0.62 | 1.4 | 92.3
concentration: 160 (µM), S9 metabolic activation: with S9, exposure time: 3-4 hours | 0.1 | 0.98 | 106
concentration: 160 (µM), S9 metabolic activation: without S9, exposure time: 24 hours | 0.74 | 1.74 | 93.1
concentration: 200 (µM), S9 metabolic activation: with S9, exposure time: 3-4 hours | 0.26 | 1.16 | 83.2
concentration: 200 (µM), S9 metabolic activation: without S9, exposure time: 24 hours | 0.8 | 2.2 | 55.4

O=c1c(O)c(-c2ccc(O)c(O)c2)oc2cc(O)cc(O)c12 [Quercetin]
Settings | hypodiploid nuclei frequency, CHO-K1 [2] [%] | micronucleus frequency, CHO-K1 [1] [%] | relative survival, CHO-K1 [3]
concentration: 4.48 (µM), S9 metabolic activation: with S9, exposure time: 3-4 hours | 0.24 | 1.2 | 102
concentration: 4.48 (µM), S9 metabolic activation: without S9, exposure time: 24 hours | 0.82 | 2.24 | 93.6
concentration: 5.6 (µM), S9 metabolic activation: with S9, exposure time: 3-4 hours | 0.3 | 1.3 | 82.7
concentration: 5.6 (µM), S9 metabolic activation: without S9, exposure time: 24 hours | 0.74 | 2.34 | 138
concentration: 7 (µM), S9 metabolic activation: with S9, exposure time: 3-4 hours | 0.14 | 1.22 | 97.7
concentration: 7 (µM), S9 metabolic activation: without S9, exposure time: 24 hours | 0.78 | 2.52 | 112
concentration: 8.75 (µM), S9 metabolic activation: with S9, exposure time: 3-4 hours | 0.34 | 1.36 | 110
concentration: 8.75 (µM), S9 metabolic activation: without S9, exposure time: 24 hours | 0.86 | 2.9 | 115
concentration: 10.9 (µM), S9 metabolic activation: with S9, exposure time: 3-4 hours | 0.12 | 0.86 | 121
concentration: 10.9 (µM), S9 metabolic activation: without S9, exposure time: 24 hours | 0.76 | 1.68 | 107
concentration: 13.7 (µM), S9 metabolic activation: with S9, exposure time: 3-4 hours | 0.34 | 1.36 | 117
concentration: 13.7 (µM), S9 metabolic activation: without S9, exposure time: 24 hours | 0.96 | 1.74 | 116
concentration: 17.1 (µM), S9 metabolic activation: with S9, exposure time: 3-4 hours | 0.22 | 1.24 | 104
concentration: 17.1 (µM), S9 metabolic activation: without S9, exposure time: 24 hours | 0.86 | 2.18 | 111
concentration: 21.4 (µM), S9 metabolic activation: with S9, exposure time: 3-4 hours | 0.2 | 1.06 | 93.5
concentration: 21.4 (µM), S9 metabolic activation: without S9, exposure time: 24 hours | 0.66 | 1.88 | 99.6
concentration: 26.7 (µM), S9 metabolic activation: with S9, exposure time: 3-4 hours | 0.3 | 1.26 | 102
concentration: 26.7 (µM), S9 metabolic activation: without S9, exposure time: 24 hours | 0.52 | 2.02 | 84.7
concentration: 33.4 (µM), S9 metabolic activation: with S9, exposure time: 3-4 hours | 0.22 | 1.34 | 87.5
concentration: 33.4 (µM), S9 metabolic activation: without S9, exposure time: 24 hours | 0.92 | 1.56 | 98.8
concentration: 41.7 (µM), S9 metabolic activation: with S9, exposure time: 3-4 hours | 0.14 | 1.1 | 81.3
concentration: 41.7 (µM), S9 metabolic activation: without S9, exposure time: 24 hours | 0.72 | 1.64 | 103
concentration: 52.2 (µM), S9 metabolic activation: with S9, exposure time: 3-4 hours | 0.26 | 1.26 | 97
concentration: 52.2 (µM), S9 metabolic activation: without S9, exposure time: 24 hours | 0.92 | 1.76 | 89.2
concentration: 65.2 (µM), S9 metabolic activation: with S9, exposure time: 3-4 hours | 0.28 | 1.32 | 97.3
concentration: 65.2 (µM), S9 metabolic activation: without S9, exposure time: 24 hours | 1.04 | 2.12 | 106
concentration: 81.5 (µM), S9 metabolic activation: with S9, exposure time: 3-4 hours | 0.16 | 1.7 | 121
concentration: 81.5 (µM), S9 metabolic activation: without S9, exposure time: 24 hours | 0.96 | 1.42 | 89.2
concentration: 102 (µM), S9 metabolic activation: with S9, exposure time: 3-4 hours | 0.12 | 1.4 | 108
concentration: 102 (µM), S9 metabolic activation: without S9, exposure time: 24 hours | 1.22 | 1.5 | 92.8
concentration: 127 (µM), S9 metabolic activation: with S9, exposure time: 3-4 hours | 0.2 | 1.46 | 95.1
concentration: 127 (µM), S9 metabolic activation: without S9, exposure time: 24 hours | 1.26 | 2.44 | 106
concentration: 159 (µM), S9 metabolic activation: with S9, exposure time: 3-4 hours | 0.26 | 1.24 | 136
concentration: 159 (µM), S9 metabolic activation: without S9, exposure time: 24 hours | 1.5 | 3.06 | 107
concentration: 199 (µM), S9 metabolic activation: with S9, exposure time: 3-4 hours | 0.14 | 1.2 | 82.5
concentration: 199 (µM), S9 metabolic activation: without S9, exposure time: 24 hours | 1.54 | 2.16 | 94
